# Measurements as given in article PMC4336329 (PLoS ONE, 2015).
# Screen size: about 310,000 compounds; about 14,000 (4.5%) showed an effect of 50% or more. The effect is printed as a negative number. Some of the results follow.
# Molecular target: human ether-à-go-go-related gene (hERG) potassium channel (human, UniProt Q12809)
# Assay: primary screen, population patch clamp on CHO cells stably expressing hERG
# 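Also: peak tail current of the secondary pulse compared with the same well before compound.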
# human ether-à-go-go-related gene (hERG) potassium channel, sequence (Q12809 whole entry, looked up): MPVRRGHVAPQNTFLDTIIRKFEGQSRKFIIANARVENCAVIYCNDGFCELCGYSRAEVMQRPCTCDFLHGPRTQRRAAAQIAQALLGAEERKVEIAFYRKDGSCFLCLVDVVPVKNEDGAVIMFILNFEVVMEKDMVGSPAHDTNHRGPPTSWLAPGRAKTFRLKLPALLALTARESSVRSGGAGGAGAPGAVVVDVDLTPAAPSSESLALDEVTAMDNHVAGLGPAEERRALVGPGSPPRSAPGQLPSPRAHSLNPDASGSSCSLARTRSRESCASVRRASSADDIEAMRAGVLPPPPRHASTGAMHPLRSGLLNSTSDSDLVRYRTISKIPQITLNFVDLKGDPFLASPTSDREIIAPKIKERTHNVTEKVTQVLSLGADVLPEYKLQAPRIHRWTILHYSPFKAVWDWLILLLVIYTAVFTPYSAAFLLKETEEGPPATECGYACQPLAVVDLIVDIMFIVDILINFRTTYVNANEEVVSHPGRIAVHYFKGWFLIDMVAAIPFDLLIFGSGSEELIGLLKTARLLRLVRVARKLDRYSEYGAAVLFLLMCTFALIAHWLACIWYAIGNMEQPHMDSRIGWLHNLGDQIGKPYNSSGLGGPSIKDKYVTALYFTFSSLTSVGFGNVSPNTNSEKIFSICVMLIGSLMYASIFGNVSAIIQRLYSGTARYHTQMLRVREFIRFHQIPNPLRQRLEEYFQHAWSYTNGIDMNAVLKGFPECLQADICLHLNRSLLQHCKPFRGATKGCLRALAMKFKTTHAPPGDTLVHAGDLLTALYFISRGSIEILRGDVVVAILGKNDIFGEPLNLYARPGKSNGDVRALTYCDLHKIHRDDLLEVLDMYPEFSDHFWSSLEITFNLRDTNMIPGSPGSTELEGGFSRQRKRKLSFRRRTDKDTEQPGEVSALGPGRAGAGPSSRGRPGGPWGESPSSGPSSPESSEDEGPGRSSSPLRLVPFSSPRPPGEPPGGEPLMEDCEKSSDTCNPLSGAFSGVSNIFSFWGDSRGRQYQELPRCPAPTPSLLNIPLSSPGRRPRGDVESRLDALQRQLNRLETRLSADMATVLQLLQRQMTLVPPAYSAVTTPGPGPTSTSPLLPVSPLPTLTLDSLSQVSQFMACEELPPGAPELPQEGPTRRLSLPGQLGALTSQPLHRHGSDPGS
row,Compound,"hERG current change (%, negative = inhibition) at 10uM [%]"
1,COc1ccc(OC)c(/C=N/NC(=O)c2ccc(=O)[nH]n2)c1,14.6
2,Cc1c(NC(=O)c2cc(-c3ccccc3O)on2)c(=O)n(-c2ccccc2)n1C,3.5
3,Fc1ccc(-c2nnc(CSc3nnc(-c4cccs4)o3)o2)cc1,-11.4
4,O=S(=O)(c1cc(F)ccc1F)N1CCN(c2ncccn2)CC1,-19
5,C=CCNC(=O)C(=O)NCC1CCCN1CC (stereo not shown),4.08
6,CC(=O)c1cnn(-c2ccccc2)c1C,19.8
7,COc1cc(C)c(NC(=O)C(=S)N2CCCC2)cc1C,13
8,CC1C(=O)C(C)(C)C(=O)OC1c1ccccc1 (stereo not shown),10.6
9,Cc1ccc(C(=O)Oc2oc(-c3ccccc3)nc2C=Nc2ccc(N(C)C)cc2)cc1,14.5
10,CC(CN1CCCCC1)OC(=O)c1cc2ccccc2o1.Cl (stereo not shown),5.66
11,O=C(c1ccccc1)N1CCN(c2ccccc2F)CC1,10.1
12,Fc1ccc(N2CCN(c3nc(-c4ccco4)cc(C(F)(F)F)n3)CC2)cc1,15.2
13,O=C(C(Cc1ccccc1)N1C(=O)C2C3CCC(C3)C2C1=O)N1CCCCC1 (stereo not shown),3.51
14,CNC(=S)NNC(=O)c1sccc1OCc1ccc(Cl)cc1Cl,7.37
15,O=C1[C@H]2[C@@H](c3ccc(Cl)cc3)N3C(=O)N(c4cccc(Br)c4)C(=O)[C@@]3(Cc3ccc(Cl)cc3)[C@H]2C(=O)N1C1CCCCC1,-3.71
16,C/C(=N\NC(=O)c1sccc1C)c1ccncc1,10.8
17,CC(=O)c1cccc(NC(=O)C2CCCC2)c1,1
18,Cc1ccc(CNC(=O)C2CCCN2C(=O)NCc2ccccc2)cc1 (stereo not shown),-31.9
19,CCOC(=O)c1cc(NC(=O)Nc2ccccc2OC)c(C)nc1C,-11.4
20,Cc1cccc(OCCCn2c(=O)sc3ccccc32)c1,-0.333
21,O=C(COC(=O)c1ccc(Br)o1)Nc1ccc(S(=O)(=O)N2CCCC2)cc1,-7.8
22,O=C(NCc1cccs1)C(=O)c1cn(CC(=O)N2CCCC2)c2ccccc12,13.8
23,O=C(c1cccc([N+](=O)[O-])c1)N1CCCN(C(=O)c2cccc([N+](=O)[O-])c2)CC1,-42

row,Compound,"hERG current change (%, negative = inhibition) at 10uM [%]"
1,COc1cc(CCC(=O)Nc2sccc2C#N)cc(OC)c1OC,21.2
2,CCOc1cc(C2Nc3ccccc3C(=O)N2c2ccccc2)c(Br)cc1OCC(=O)O (stereo not shown),-53.8
3,O=C(CSCc1ccc(Br)cc1)NC1CC1,19.6
4,CCC(C)NC(=O)c1cc2c(=O)n3ccccc3nc2s1 (stereo not shown),-7.34
5,O=C(/C=C/c1ccc2c(c1)OCO2)NCC1CCCO1 (stereo not shown),18.4
6,Cc1ccc(N(CC(=O)NC(C)(C)C)C(=O)CNC(=O)c2cccs2)cc1C,10.9
7,O=C1CCCc2c1nc(-c1ccccc1F)n2O,3.86
8,O=C(COc1ccc([N+](=O)[O-])cc1)Nc1cc(C(=O)O)cc(C(=O)O)c1,27.1
9,Cc1ccc2c(COC(=O)C34CC5CC(CC(C5)C3)C4)cc(=O)oc2c1,-37
10,O=C(c1ccc(NC2=NC3CS(=O)(=O)CC3S2)cc1)N(CCO)Cc1ccccc1 (stereo not shown),21.7
11,COc1ccccc1CNC(=O)C(C)n1nc(C)c2c(C)n(-c3ccccc3)nc2c1=O (stereo not shown),-0.0415
12,CCN(CC)c1ccc(C=C2C(=O)OC3(CCCCC3)OC2=O)cc1,7.76
13,CN(C)CC1(c2ccccc2)CCCC1.Cl,-5.91
14,Cc1ccc(SCCC(=O)NCc2ccco2)cc1,-3.96
15,NC(=O)c1ccc(NC(=O)COC(=O)c2c3c(nc4ccccc24)/C(=C\c2cccs2)CCC3)cc1,3.34
16,CCCn1c(N)c(C(=O)COC(=O)c2cccc(S(=O)(=O)N3CCOCC3)c2)c(=O)[nH]c1=O,1.95
17,Cc1oc(-c2cccs2)nc1CS(=O)CC(=O)NC1CCCCCC1 (stereo not shown),5.08
18,N#Cc1cc(O)c(-n2nnc3ccccc32)cc1C#N,13.9
19,Cc1ccc(C(=O)NNC(=O)c2n[nH]c(=O)c3ccccc23)cc1C,-5.8
20,COC(=O)CCCNC(=O)CC1C(=O)NCCN1Cc1ccoc1 (stereo not shown),22.1
21,Cn1cccc1/C=C(\C#N)c1ccccc1,-11.4
22,Cc1occc1C(=O)NCc1ccc(C(=O)O)o1,-0.0815
23,Cc1cc(C)cc(NS(=O)(=O)c2ccc3[nH]c(=O)ccc3c2)c1,7.42
